{
  "source": "PubChem BioAssay AID485294",
  "about": "(National Center for Advancing Translational Sciences (NCATS), 2010)",
  "note": "Hit rate of the full screen: of about 370,000 compounds, about 150 (0.041%) were called active. This list was built around the results that the source calls inconclusive (neither active nor inactive); the mix of calls is not that of the screen. Calls come from the whole dose curve; as a rule, active = well fitted inhibition curve with a large enough effect; inconclusive = small, poorly fitted or top-dose-only effect; inactive = flat fitted curve, though single readings scatter. No potency is given beside an inconclusive call; the fits are too rough. Potency is the fitted concentration of half-maximal effect; tags give direction and shape of the fitted curve.",
  "data": [
    {"target": "Beta-lactamase (Escherichia coli (strain K12)) (UniProt P00811)", "sequence (P00811 whole entry, looked up)": "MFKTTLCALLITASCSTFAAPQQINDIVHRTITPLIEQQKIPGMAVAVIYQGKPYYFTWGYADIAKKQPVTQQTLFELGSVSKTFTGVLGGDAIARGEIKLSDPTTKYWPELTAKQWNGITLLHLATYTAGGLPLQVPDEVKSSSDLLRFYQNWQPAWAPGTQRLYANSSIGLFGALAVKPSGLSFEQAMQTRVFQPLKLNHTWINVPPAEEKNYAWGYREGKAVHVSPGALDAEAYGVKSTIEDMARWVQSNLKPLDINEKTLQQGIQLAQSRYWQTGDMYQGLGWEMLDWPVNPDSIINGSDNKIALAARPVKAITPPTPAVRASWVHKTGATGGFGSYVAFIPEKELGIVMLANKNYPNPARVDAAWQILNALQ", "assay": "qHTS Inhibitors of AmpC Beta-Lactamase (assay with detergent); note: nearly all actives have a fitted effect of over 25% in size;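 for activity change, negative = inhibition: 0% = no-compound wells and -100% = no-enzyme wells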", "conditions": "AmpC hydrolysis of nitrocefin, absorbance 480 nm, 0.01% Triton; activity change, negative = inhibition: at 114 µM (top of the series)", "outline": "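AmpC (5.3 nM in the dispensed reagent) in 20 mM phosphate pH 7.0 with 0.01% (detergent screen) or 0.0001% Triton X-100 was preincubated with compounds for 15 min at room temperature. Nitrocefin was then added from an 800 uM solution, and hydrolysis was followed at 480 nm.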", "values": [
      {"smiles": "COCCNC(=O)CN(c1ccc(C)cc1)S(=O)(=O)c1ccc(SC)cc1", "Potency": "inconclusive [inhibitor, partial curve, poor fit]"},
      {"smiles": "Cc1cccc(OCc2n[nH]c(=S)o2)c1C", "activity change, negative = inhibition": "inactive: 8.39%"},
      {"smiles": "C(=N\\Nc1ncnc2ccccc12)/c1ccccc1", "Potency": "inconclusive [inhibitor, full curve, poor fit]"},
      {"smiles": "CCN(CC(=O)Nc1ccc(NC(C)=O)cc1)C(=O)c1ccc2c(c1)S(=O)(=O)N=C1CCCCCN12", "Potency": "inconclusive [inhibitor, full curve, poor fit]"},
      {"smiles": "O=C(Nc1c(F)cc(F)cc1Br)c1cc2nc(C(F)F)cc(C(F)F)n2n1", "Potency": "inconclusive [inhibitor, full curve]"},
      {"smiles": "O=C1c2ccccc2C(=O)N1CCCc1nc2ccccc2c(=O)n1CCCn1ccnc1", "Potency": "inconclusive [inhibitor, partial curve, poor fit]"},
      {"smiles": "Cc1ccc(N2C(=O)CSC2c2c(F)cccc2Cl)cc1", "note": "(centres undefined)", "Potency": "inconclusive [inhibitor, full curve, poor fit]"},
      {"smiles": "COc1ccc(-n2c(=O)c3ccccc3n(Cc3cccc(C)c3)c2=O)cc1", "activity change, negative = inhibition": "inactive: 16.6%"},
      {"smiles": "CCN1CCN(C(=O)c2cnn3c(C(F)F)cc(-c4ccc(C)cc4)nc23)CC1", "activity change, negative = inhibition": "inactive: -0.641%"},
      {"smiles": "O=C(Nc1ccncc1)c1ccc(F)cc1", "activity change, negative = inhibition": "inactive: -8.17%"},
      {"smiles": "CCCCNC(=O)CN1C(=O)NC2(CCOc3ccccc32)C1=O", "note": "(centres undefined)", "Potency": "inconclusive [inhibitor, single point]"},
      {"smiles": "COc1cc(CCC(=O)Nc2ccc(Br)c(C(F)(F)F)c2)cc(OC)c1OC", "Potency": "inconclusive [inhibitor, partial curve]"},
      {"smiles": "COc1cc(SC)ccc1C(=O)Nc1ccccc1C#N", "Potency": "inconclusive [inhibitor, single point]"},
      {"smiles": "O=C(CSc1n[nH]c(-c2ccc(Cl)cc2Cl)n1)Nc1ccccn1", "Potency": "inconclusive [inhibitor, single point]"},
      {"smiles": "CCOc1ccc(CCNC(=O)c2sc3ncccc3c2-n2cccc2)cc1OCC", "activity change, negative = inhibition": "inactive: 3.5%"},
      {"smiles": "Nc1cc(=O)[nH]c(N)n1", "Potency": "inconclusive [inhibitor, partial curve, poor fit]"},
      {"smiles": "COc1ccc(-c2cn[nH]c2C)cc1", "Potency": "inconclusive [inhibitor, partial curve, poor fit]"},
      {"smiles": "O=C(O)/C(=C\\c1cccc(C(F)(F)F)c1)c1ccc(S(=O)(=O)N2CCCC2)s1", "Potency": "inconclusive [inhibitor, single point]"},
      {"smiles": "COc1cccc(C(=O)OCCN(C)C(C)(C)C)c1", "Potency": "inconclusive [inhibitor, full curve, poor fit]"},
      {"smiles": "C=C(C)C1CC=C(C)/C(=N/NC(=O)COc2cccc3ccccc23)C1", "note": "(centres undefined)", "Potency": "inconclusive [inhibitor, single point]"},
      {"smiles": "COc1ccc(COC(=O)CCNC(=O)c2ccc(Cl)cc2)cc1", "Potency": "inconclusive [inhibitor, full curve]"},
      {"smiles": "CCCCCSc1ncnc2c1sc1nc(N3CCOCC3)c3c(c12)CCCC3", "activity change, negative = inhibition": "inactive: 26.6%"},
      {"smiles": "COC(=O)c1ccc(=O)n(Cc2ccc3c(c2)OCO3)c1", "Potency": "inconclusive [inhibitor, partial curve, poor fit]"},
      {"smiles": "O=C(C1CCC1)N1CCc2cc(S(=O)(=O)N3CCN(c4ccccn4)CC3)ccc21", "activity change, negative = inhibition": "inactive: -15%"},
      {"smiles": "Cc1ccc(S(=O)(=O)N2CCOC23CCN(C(=O)C(=O)NCc2ccccc2)CC3)cc1", "Potency": "inconclusive [inhibitor, full curve, poor fit]"},
      {"smiles": "COc1ccc2[nH]cc(C(=O)CN(C)CCc3ccc(OC)c(OC)c3)c2c1", "activity change, negative = inhibition": "inactive: -15.7%"},
      {"smiles": "Nc1nc2n(n1)C(c1cccc(Br)c1)CC(c1ccccc1)N2", "note": "(centres undefined)", "Potency": "inconclusive [inhibitor, full curve]"},
      {"smiles": "COc1ccc(Cl)cc1NC(=O)CNc1ccc(F)cc1C", "Potency": "inconclusive [inhibitor, partial curve, poor fit]"},
      {"smiles": "Cc1ccc(NC(=O)CSc2nnc(NC(=O)C3CC3)s2)cc1", "Potency": "inconclusive [inhibitor, full curve, poor fit]"},
      {"smiles": "O=C(NC1CCCCC1)Oc1cc2oc(=O)sc2cc1Cl", "activity change, negative = inhibition": "inactive: 1.13%"},
      {"smiles": "CCOC(=O)c1nnc(-c2ccccc2)nc1Sc1ccccc1Cl", "Potency": "inconclusive [inhibitor, full curve, poor fit]"},
      {"smiles": "CCN(c1ccc(OC)cc1)S(=O)(=O)N1CCCC(C(=O)NCc2cccc(C)c2)C1", "note": "(centres undefined)", "Potency": "inconclusive [inhibitor, full curve]"},
      {"smiles": "COc1cc(/C=N\\NC(=O)c2ccc(-c3ccccc3)cc2)ccc1OCC(N)=O", "Potency": "inconclusive [inhibitor, full curve, poor fit]"},
      {"smiles": "CCC(C)(C(=O)NC1CCCCC1)N(Cc1ccco1)C(=O)Cc1cccs1", "note": "(centres undefined)", "activity change, negative = inhibition": "inactive: -8.4%"},
      {"smiles": "CCOC(=O)c1c(S(=O)(=O)N2CCCC(C(=O)NCc3cccc(OC)c3)C2)c(C)n(C)c1C", "note": "(centres undefined)", "activity change, negative = inhibition": "inactive: -4.79%"},
      {"smiles": "Fc1ccc(N2CCN(C3=Nc4cccc5cccc3c45)CC2)cc1", "Potency": "inconclusive [inhibitor, full curve, poor fit]"},
      {"smiles": "COc1cc(/C=N/N2CCN(c3ccccc3)CC2)cc(OC)c1OC(C)=O", "Potency": "inconclusive [inhibitor, full curve, poor fit]"},
      {"smiles": "Nc1nc2ccccc2n1C(=O)c1ccccc1", "activity change, negative = inhibition": "inactive: -9.21%"},
      {"smiles": "O=C(CNC(=O)c1ccccc1)OCc1cc(=O)n2ccsc2n1", "activity change, negative = inhibition": "inactive: -2.63%"},
      {"smiles": "CC1CC(C)CN(C(=O)c2ccc3nc[nH]c3c2)C1", "note": "(centres undefined)", "Potency": "inconclusive [inhibitor, single point]"},
      {"smiles": "CCSc1nc2c(c(-c3ccc(C)o3)c1C#N)CCCC2", "activity change, negative = inhibition": "inactive: -12.1%"},
      {"smiles": "Cc1cc(C)cc(NC(=S)NCCc2c[nH]c3ccccc23)c1", "Potency": "inconclusive [inhibitor, partial curve, poor fit]"},
      {"smiles": "NC(=O)CN(C/C=C/c1ccccc1)C/C=C/c1ccccc1", "activity change, negative = inhibition": "inactive: -10.8%"},
      {"smiles": "COc1ccc(CN2CCN(C(=O)CCC(=O)c3ccc(C)s3)CC2)cc1OC", "Potency": "inconclusive [inhibitor, full curve, poor fit]"},
      {"smiles": "O=C(COC(=O)c1ccc(S(=O)(=O)N2CCCC2)cc1)Nc1cccc(Cl)c1", "activity change, negative = inhibition": "inactive: 0.356%"},
      {"smiles": "COc1ccc(Cn2c(CCC(=O)Nc3ccc(CC#N)cc3)nc3cccnc32)cc1", "activity change, negative = inhibition": "inactive: -11.2%"},
      {"smiles": "C=CCS(=O)(=O)N1CCCC(N2CCN(c3ccccc3OC)CC2)C1", "note": "(centres undefined)", "Potency": "inconclusive [inhibitor, full curve, poor fit]"},
      {"smiles": "CC(O)Cn1cnc2c1c(=O)n(C)c(=O)n2C", "note": "(centres undefined)", "Potency": "inconclusive [inhibitor, partial curve, poor fit]"},
      {"smiles": "CCOC(=O)c1c(C)[nH]c(=S)c(C#N)c1-c1ccc(OC)cc1", "Potency": "inconclusive [inhibitor, full curve, poor fit]"},
      {"smiles": "NC(=O)C1(N2CCCCC2)CCN(C(=O)Nc2ccc(F)cc2)CC1", "activity change, negative = inhibition": "inactive: 24.7%"},
      {"smiles": "O=C(CCCC(=O)NCc1ccc(F)cc1)NCc1ccc(F)cc1", "Potency": "inconclusive [inhibitor, single point]"},
      {"smiles": "CCc1ccccc1NC(=O)CN1C(=O)c2ccccc2Sc2ncccc21", "activity change, negative = inhibition": "inactive: -5.17%"},
      {"smiles": "CCN(CC)CCOC(=O)c1c(C)oc2ccc(O)cc12", "Potency": "inconclusive [inhibitor, partial curve]"},
      {"smiles": "Cc1ccc(NC(=O)CCCc2nnc3n(C)c(=O)c4sccc4n23)cc1F", "activity change, negative = inhibition": "inactive: 5.01%"},
      {"smiles": "O=C(c1cccc(OC2CCN(Cc3ccc(F)cc3)CC2)c1)N1CCCC1", "Potency": "inconclusive [inhibitor, partial curve]"},
      {"smiles": "CC(=O)N1c2ccc([N+](=O)[O-])cc2NC(=O)CC1C", "note": "(centres undefined)", "Potency": "inconclusive [inhibitor, full curve, poor fit]"},
      {"smiles": "O=C(Cn1cnc2ccccc21)c1ccccc1", "Potency": "inconclusive [inhibitor, partial curve]"},
      {"smiles": "C=C(C)CN1CCN(c2c(CCC#N)c(C)c(C#N)c3nc4ccccc4n23)CC1", "Potency": "inconclusive [inhibitor, full curve]"},
      {"smiles": "Cc1cc(-c2ccc(C)c(S(=O)(=O)NCC3CCN(Cc4ccc(F)cc4)CC3)c2)on1", "Potency": "inconclusive [inhibitor, full curve]"},
      {"smiles": "Cc1cccc2sc(NNC(=O)c3ccc(S(=O)(=O)N4CCCC(C)C4)cc3)nc12", "note": "(centres undefined)", "Potency": "inconclusive [inhibitor, partial curve, poor fit]"},
      {"smiles": "Cc1cccc(-n2ncc3c(N4CCC(C)CC4)ncnc32)c1", "Potency": "inconclusive [inhibitor, full curve, poor fit]"},
      {"smiles": "CCOc1ccc(CCNC(=O)c2ccc(Cl)c(S(=O)(=O)N3CCOCC3)c2)cc1OCC", "Potency": "inconclusive [inhibitor, partial curve]"},
      {"smiles": "COc1cc(OC)c(NC(=O)C(=O)CC(=O)c2ccc(C)cc2C)cc1Cl", "activity change, negative = inhibition": "inactive: 6.82%"},
      {"smiles": "COc1ccc(N(Cc2cc3ccc(C)cc3[nH]c2=O)C(=O)c2ccco2)cc1", "Potency": "inconclusive [inhibitor, full curve, poor fit]"},
      {"smiles": "COc1cnc(-c2ccccc2)nc1Sc1ccccc1", "Potency": "inconclusive [inhibitor, full curve, poor fit]"},
      {"smiles": "COc1cccc(C(=O)OCC(=O)c2ccc(Br)s2)c1OC", "Potency": "inconclusive [inhibitor, partial curve, poor fit]"},
      {"smiles": "O=c1c2ccccc2cnn1Cc1n[nH]c(=S)n1-c1ccc(Cl)cc1Cl", "Potency": "inconclusive [inhibitor, partial curve, poor fit]"},
      {"smiles": "Cc1cc(C)cc(NC(=O)CCCn2c3ccccc3c(=O)c3ccccc32)c1", "activity change, negative = inhibition": "inactive: 12%"},
      {"smiles": "O=C(CN(C1CCCCC1)S(=O)(=O)c1ccccc1)NCC1CCCO1", "note": "(centres undefined)", "Potency": "inconclusive [inhibitor, full curve, poor fit]"}
    ]}
  ]
}
